The structures appear in SMILES notation.

The term EC50 denotes the concentration giving half of the maximal effect.

The test system of this assay is KMS11 cells. The assay is described as follows: cells. As to conditions: Homo sapiens, KMS-11, 72 h, read-out: KMS11-lluc EC50.

As to `C[C@H]1CN(c2ccncc2NC(=O)c2ccc(F)c(-c3cccnc3)n2)C[C@@H](N)[C@@H]1O` [Example 118, N-(4-((3R,4R,5S)-3-amino-4-hydroxy-5-methylpiperidin-1-yl)pyridin-3-yl)-3-fluoro-2,3′-bipyridine-6-carboxamide], the EC50 was 4.6 µM.
The result for `CCc1ccc(F)c(-c2cccc(C(=O)Nc3cnccc3[C@H]3C[C@@H](N)[C@H](O)[C@@H](C)C3)n2)c1F` [Example 15, N-(4-((1R,3R,4R,5S)-3-amino-4-hydroxy-5-methylcyclohexyl)pyridin-3-yl)-6-(3-ethyl-2,6-difluorophenyl)picolinamide] reads 5.5 µM; that for `C[C@H]1CN(c2ccncc2NC(=O)c2nc(-c3c(F)cccc3F)ccc2F)C[C@@H](N)[C@@H]1O` [Example 24, N-(4-((3R,4R,5S)-3-amino-4-hydroxy-5-methylpiperidin-1-yl)pyridin-3-yl)-6-(2,6-difluorophenyl)-3-fluoropicolinamide], 0.62 µM; that for `COc1ccc(F)c(-c2nc(C(=O)Nc3cnccc3[C@H]3C[C@@H](N)[C@H](O)[C@@H](C)C3)ccc2F)c1F` [Example 47, N-(4-((1R,3R,4R,5S)-3-amino-4-hydroxy-5-methylcyclohexyl)pyridin-3-yl)-6-(2,6-difluoro-3-methoxyphenyl)-5-fluoropicolinamide], 1.3 µM.
As for `C[C@@H]1C[C@H](N)C[C@H](c2ccncc2NC(=O)c2ccc(F)c([C@H]3CC[C@@H](O)CC3)n2)C1` [Example 54, N-(4-((1R,3S,5S)-3-amino-5-methylcyclohexyl)pyridin-3-yl)-5-fluoro-6-((1s,4s)-4-hydroxycyclohexyl)picolinamide], the EC50 came out at 3.8 µM.
The value for `CC1(C)C[C@H](N)C[C@H](c2ccncc2NC(=O)c2ccc(F)c(-c3c(F)cc(O)cc3F)n2)C1` [Example 122, N-(4-((1R,5R)-5-amino-3,3-dimethylcyclohexyl)pyridin-3-yl)-6-(2,6-difluoro-4-hydroxyphenyl)-5-fluoropicolinamide] was 0.23 µM.
In the case of `Cc1ccc(F)c(-c2nc(C(=O)Nc3cnccc3N3C[C@@H](N)[C@H](O)[C@@H](C)C3)ccc2F)c1F` [Example 22, N-(4-((3R,4R,5S)-3-amino-4-hydroxy-5-methylpiperidin-1-yl)pyridin-3-yl)-6-(2,6-difluoro-3-methylphenyl)-5-fluoropicolinamide], the EC50 stood at 0.21 µM.
The result for `C[C@H]1CN(c2ccncc2NC(=O)c2ccc(F)c(-c3ccccc3F)n2)C[C@@H](N)[C@@H]1O` [Example 25, N-(4-((3R,4R,5S)-3-amino-4-hydroxy-5-methylpiperidin-1-yl)pyridin-3-yl)-5-fluoro-6-(2-fluorophenyl)picolinamide] reads 0.37 µM.
With `C[C@H]1CN(c2ccncc2NC(=O)c2nc(-c3c(F)cccc3F)c(F)cc2N)C[C@@H](N)[C@@H]1O` [Example 3, 3-amino-N-(4-((3R,4R,5S)-3-amino-4-hydroxy-5-methylpiperidin-1-yl)pyridin-3-yl)-6-(2,6-difluorophenyl)-5-fluoropicolinamide], the EC50 came to 0.01 µM.
The result for `N[C@H]1CCC[C@@H](c2ccncc2NC(=O)c2cccc(-c3c(F)cc(O)cc3F)n2)C1` [Example 8, N-(4-((1R,3S)-3-aminocyclohexyl)pyridin-3-yl)-6-(2,6-difluoro-4-hydroxyphenyl)picolinamide] reads 0.51 µM.
On to `C[C@@H]1C[C@H](O)C[C@H](c2ccncc2NC(=O)c2ccc(F)c(-c3c(F)cccc3F)n2)C1` [Example 1, 6-(2,6-difluorophenyl)-5-fluoro-N-(4-((1R,3S,5S)-3-hydroxy-5-methylcyclohexyl)pyridin-3-yl)picolinamide], for which the half-maximal effective concentration (EC50) worked out at 7.6 µM.
Consider `C[C@@H]1C[C@H](N)C[C@H](c2ccncc2NC(=O)c2nc(-c3ccc(O)cc3F)ccc2F)C1` [Example 39, N-(4-((1R,3S,5S)-3-amino-5-methylcyclohexyl)pyridin-3-yl)-3-fluoro-6-(2-fluoro-4-hydroxyphenyl)picolinamide], for which the EC50 turned out to be 6.6 µM.
With `Nc1ccc(-c2c(F)cccc2F)nc1C(=O)Nc1cnccc1C1=CC(N)CCC1` (centres unmarked) [Example 107, 3-amino-N-(4-(3-aminocyclohex-1-enyl)pyridin-3-yl)-6-(2,6-difluorophenyl)picolinamide], the EC50 came to 0.93 µM.
In the case of `COc1cc(F)c(-c2nc(C(=O)Nc3cnccc3[C@H]3C[C@@H](N)CC(C)(C)C3)ccc2F)c(F)c1` [Example 123, N-(4-((1R,5R)-5-amino-3,3-dimethylcyclohexyl)pyridin-3-yl)-6-(2,6-difluoro-4-methoxyphenyl)-5-fluoropicolinamide], the EC50 was determined as 0.49 µM.
The value for `C[C@@H]1C[C@H](N)C[C@H](c2ccncc2NC(=O)c2cccc(-c3ccccc3F)n2)C1` [Example 62, N-(4-((1R,3S,5S)-3-amino-5-methylcyclohexyl)pyridin-3-yl)-6-(2-fluorophenyl)picolinamide] was 2.4 µM; that for `C[C@H]1CN(c2ccncc2NC(=O)c2cccc(-c3c(F)cccc3F)n2)C[C@@H](O)[C@@H]1O` [Example 115, 6-(2,6-difluorophenyl)-N-(4-((3R,4R,5S)-3,4-dihydroxy-5-methylpiperidin-1-yl)pyridin-3-yl)picolinamide] was 0.59 µM.
The value for `CCc1ccc(F)c(-c2cccc(C(=O)Nc3cnccc3[C@@H]3CCC[C@H](N)C3)n2)c1F` [Example 19, N-(4-((1R,3S)-3-aminocyclohexyl)pyridin-3-yl)-6-(3-ethyl-2,6-difluorophenyl)picolinamide] was 4.5 µM; that for `N[C@H]1CCC[C@@H](c2ccncc2NC(=O)c2nc(-c3c(F)cccc3F)ccc2F)C1` [Example 80, N-(4-((1R,3S)-3-aminocyclohexyl)pyridin-3-yl)-6-(2,6-difluorophenyl)-3-fluoropicolinamide] was 7.9 µM; that for `C[C@H]1C[C@@H](c2ccncc2NC(=O)c2ccc(F)c(-c3cc(O)ccc3F)n2)C[C@@H](N)[C@@H]1O` [Example 5, N-(4-((1R,3R,4R,5S)-3-amino-4-hydroxy-5-methylcyclohexyl)pyridin-3-yl)-5-fluoro-6-(2-fluoro-5-hydroxyphenyl)picolinamide] was 4.8 µM.
The value for `C[C@@H]1C[C@H](N)C[C@H](c2ccncc2NC(=O)c2nc(-c3c(F)cc(O)cc3F)ccc2F)C1` [Example 42, N-(4-((1R,3S,5S)-3-amino-5-methylcyclohexyl)pyridin-3-yl)-6-(2,6-difluoro-4-hydroxyphenyl)-3-fluoropicolinamide] was 3 µM; that for `C[C@@H]1C[C@H](N)C[C@H](c2ccncc2NC(=O)c2cccc(-c3ccc(O)cc3F)n2)C1` [Example 37, N-(4-((1R,3S,5S)-3-amino-5-methylcyclohexyl)pyridin-3-yl)-6-(2-fluoro-4-hydroxyphenyl)picolinamide] was 1.5 µM; that for `C[C@H]1C[C@@H](c2ccncc2NC(=O)c2cccc(-c3c(F)cccc3F)n2)C[C@@H](N)[C@H]1O` [Example 76, N-(4-((1R,3R,4S,5S)-3-amino-4-hydroxy-5-methylcyclohexyl)pyridin-3-yl)-6-(2,6-difluorophenyl)picolinamide] was 0.83 µM.
Take `N[C@H]1CCC[C@@H](c2ccncc2NC(=O)c2nc(-c3cc(O)ccc3F)ccc2F)C1` [Example 34, N-(4-((1R,3S)-3-aminocyclohexyl)pyridin-3-yl)-3-fluoro-6-(2-fluoro-5-hydroxyphenyl)picolinamide]: the half-maximal effective concentration (EC50) worked out at 6 µM.
The value for `N[C@H]1CCC[C@@H](c2ccncc2NC(=O)c2ccc(F)c(-c3cc(F)cc(F)c3F)n2)C1` [Example 14, N-(4-((1R,3S)-3-aminocyclohexyl)pyridin-3-yl)-5-fluoro-6-(2,3,5-trifluorophenyl)picolinamide] was 8.5 µM.
The value for `N[C@H]1CCC[C@@H](c2ccncc2NC(=O)c2ccc(F)c(-c3cccc(F)c3F)n2)C1` [Example 79, N-(4-((1R,3S)-3-aminocyclohexyl)pyridin-3-yl)-6-(2,3-difluorophenyl)-5-fluoropicolinamide] was 4.6 µM; that for `Cc1ccc(F)c(-c2nc(C(=O)Nc3cnccc3[C@@H]3C[C@H](C)C[C@H](N)C3)ccc2F)c1F` [Example 27, N-(4-((1R,3S,5S)-3-amino-5-methylcyclohexyl)pyridin-3-yl)-6-(2,6-difluoro-3-methylphenyl)-5-fluoropicolinamide] was 0.95 µM; that for `C[C@H]1CN(c2ccncc2NC(=O)c2ccc(F)c(-c3c(F)cccc3F)n2)C[C@@H](O)[C@@H]1O` [Example 116, 6-(2,6-difluorophenyl)-N-(4-((3R,4R,5S)-3,4-dihydroxy-5-methylpiperidin-1-yl)pyridin-3-yl)-5-fluoropicolinamide] was 0.29 µM.
The result for `C[C@H]1C[C@@H](c2ccncc2NC(=O)c2ccc(F)c(-c3c(F)cccc3F)n2)C[C@@H](O)[C@@H]1O` [Example 117, 6-(2,6-Difluorophenyl)-N-(4-((1R,3R,4R,5S)-3,4-dihydroxy-5-methylcyclohexyl)pyridin-3-yl)-5-fluoropicolinamide] reads 2.5 µM; that for `C[C@@H]1C[C@H](N)C[C@H](c2ccncc2NC(=O)c2ccc(F)c(-c3c(F)ccc(O)c3F)n2)C1` [Example 125, N-(4-((1R,3S,5S)-3-amino-5-methylcyclohexyl)pyridin-3-yl)-6-(2,6-difluoro-3-hydroxyphenyl)-5-fluoropicolinamide], 0.41 µM.
Regarding `C[C@H]1C[C@@H](c2ccncc2NC(=O)c2nc(-c3c(F)cccc3F)c(F)cc2N)C[C@@H](N)[C@@H]1O` (stereo in doubt) [Example 130, 3-amino-N-(4-(3-amino-4-hydroxy-5-methylcyclohexyl)pyridin-3-yl)-6-(2,6-difluorophenyl)-5-fluoropicolinamide], the EC50 worked out at 1 µM.
The result for `Cc1ccc(F)c(-c2nc(C(=O)Nc3cnccc3[C@@H]3CCC[C@H](N)C3)ccc2F)c1F` [Example 20, N-(4-((1R,3S)-3-aminocyclohexyl)pyridin-3-yl)-6-(2,6-difluoro-3-methylphenyl)-5-fluoropicolinamide] reads 1.5 µM; that for `CCCOc1ccc(F)c(-c2nc(C(=O)Nc3cnccc3[C@@H]3CC[C@H](O)[C@H](N)C3)c(N)cc2F)c1` [Example 67, 3-amino-N-(4-((1R,3R,4S)-3-amino-4-hydroxycyclohexyl)pyridin-3-yl)-5-fluoro-6-(2-fluoro-5-propoxyphenyl)picolinamide], 1.2 µM.

Values taken from patent US8592455B2 (priority 2008, dated 2013).
